# Reference: PubChem BioAssay AID504332 (National Center for Advancing Translational Sciences (NCATS), 2011)
# The campaign covered roughly 350,000 compounds. About 31,000 (8.9%) were called active. Inconclusive results, whose numbers are uncertain, are shown with a selection of clear calls. Calls follow the shape of the dose curve; as a rule, active = well fitted inhibition curve with a large enough effect; inconclusive = small, poorly fitted or top-dose-only effect; inactive = no such curve, though single readings can be large or run the other way. Where the call is inconclusive, the potency comes from a doubtful curve fit.
# Target: Histone-lysine N-methyltransferase EHMT2 (Homo sapiens) (UniProt Q96KQ7)
# Chain of UniProt Q96KQ7 (Q96KQ7 whole entry, looked up): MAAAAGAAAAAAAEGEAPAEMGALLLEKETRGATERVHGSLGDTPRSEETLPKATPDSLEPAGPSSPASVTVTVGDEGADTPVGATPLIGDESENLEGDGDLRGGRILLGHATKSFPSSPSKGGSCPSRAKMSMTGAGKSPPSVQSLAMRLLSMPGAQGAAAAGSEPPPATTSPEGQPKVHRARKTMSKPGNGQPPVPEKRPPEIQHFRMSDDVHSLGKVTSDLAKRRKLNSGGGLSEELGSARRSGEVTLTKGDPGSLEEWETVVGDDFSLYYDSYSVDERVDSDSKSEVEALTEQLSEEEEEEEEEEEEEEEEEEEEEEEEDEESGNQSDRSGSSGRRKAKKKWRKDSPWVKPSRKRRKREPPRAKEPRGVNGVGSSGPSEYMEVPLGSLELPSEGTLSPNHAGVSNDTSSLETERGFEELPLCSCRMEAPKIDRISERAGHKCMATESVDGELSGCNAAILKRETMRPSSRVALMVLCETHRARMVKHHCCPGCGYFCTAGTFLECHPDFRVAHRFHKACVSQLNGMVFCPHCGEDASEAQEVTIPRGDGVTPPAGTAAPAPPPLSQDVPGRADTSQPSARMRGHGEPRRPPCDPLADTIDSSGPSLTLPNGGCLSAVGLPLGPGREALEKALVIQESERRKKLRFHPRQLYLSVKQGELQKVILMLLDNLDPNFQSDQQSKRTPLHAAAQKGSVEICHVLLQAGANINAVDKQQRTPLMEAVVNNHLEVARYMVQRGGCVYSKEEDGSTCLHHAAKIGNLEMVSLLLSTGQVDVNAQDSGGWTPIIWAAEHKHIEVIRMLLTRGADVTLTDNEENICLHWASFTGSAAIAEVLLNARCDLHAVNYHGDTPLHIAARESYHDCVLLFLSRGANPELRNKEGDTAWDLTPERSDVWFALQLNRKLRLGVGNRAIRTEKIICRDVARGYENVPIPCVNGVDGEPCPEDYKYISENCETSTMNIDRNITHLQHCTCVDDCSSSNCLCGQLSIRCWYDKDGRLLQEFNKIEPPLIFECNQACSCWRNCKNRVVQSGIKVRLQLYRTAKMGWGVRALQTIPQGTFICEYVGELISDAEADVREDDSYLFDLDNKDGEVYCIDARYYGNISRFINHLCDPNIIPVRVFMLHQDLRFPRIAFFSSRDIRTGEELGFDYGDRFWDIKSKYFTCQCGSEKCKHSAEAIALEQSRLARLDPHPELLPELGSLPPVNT
# Assay: qHTS Assay for Inhibitors of Histone Lysine Methyltransferase G9a; also: nearly all actives have a fitted effect of over 75% in size
# Details: G9a H3K9 monomethylation, AlphaScreen, 2 h; activity, negative = inhibition: at 59 µM (top of the series) unless noted
# Procedure, shortened: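 Chemiluminescent proximity detection of H3K9 monomethylation, read after 10 min bead incubation in the dark. Reaction: 20 nM G9a, 500 nM biotin-H3K9 peptide, 20 uM SAM cofactor, 2 h, room temperature, following 15 min enzyme-compound preincubation.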
# % is scaled to controls: 0 for no effect and ±100 for the full control effect; potency is read from the fitted curve at half-maximal effect; tags tell the direction and shape of the fitted curve.
SMILES,Potency,"activity, negative = inhibition"
O=C(Nc1ccc(-n2nncc2-c2ccco2)cc1)c1cccc(F)c1,active: 44.7 µM,
O=C(c1cnn(C(=O)c2ccccc2F)c1)c1ccccc1O,"inconclusive: 3.55 µM [inhibitor, single point]",
O=C(CSc1ccc(-c2ccco2)nn1)c1ccccc1,active: 7.94 µM,
NC(=S)Nc1cccc(O)c1,,inactive: -48% [at 102 µM]
O=C(CSc1ncn[nH]1)Nc1cccc(S(=O)(=O)N2CCCCCC2)c1,"inconclusive: 39.8 µM [inhibitor, partial curve, poor fit]",
CSCC[C@H](NC(=O)[C@@H]1Cc2ccccc2CN1)C(=O)Nc1ccc2c(c1)OCO2,"inconclusive: 25.1 µM [inhibitor, single point]",
COc1cccc(Cn2c(Oc3cc(C)cc(C)c3)nc3c2c(=O)n(C)c(=O)n3C)c1,"inconclusive: 22.4 µM [inhibitor, partial curve, poor fit]",
CN1CCN(c2ccc(Cl)cc2NC(=O)/C=C/c2cccc(F)c2)CC1,"inconclusive: 44.7 µM [inhibitor, partial curve]",
COc1ccc(CC(=O)N2CCc3cc(OC)c(OC)cc3C2COc2cc(C)cc(C)c2)cc1OC (stereo not drawn),"inconclusive: 22.4 µM [inhibitor, partial curve, poor fit]",
CCc1ccc(S(=O)(=O)N(C(=O)c2ccncc2)c2ccc3oc(C)c(C(=O)OC)c3c2)cc1,"inconclusive: 4.47 µM [inhibitor, partial curve, poor fit]",
CS(=O)(=O)N(CC(=O)Nc1ccc(S(=O)(=O)N2CCCC2)cc1)c1cccc(F)c1,"inconclusive: 89.1 µM [inhibitor, single point]",
O=C(NNC(=O)c1cc2cc3ccccc3nc2s1)c1cccc(Cl)c1,active: 31.6 µM,
COc1ccc(C2CC(=O)Oc3c(C(CCN4CCOCC4)c4cc(OC)c(OC)c(OC)c4)c(OC)cc(OC)c32)cc1 (stereo not drawn),,inconclusive: -92.6% [inhibitor]
Cc1c(NC(=S)Nc2ccccc2)c(=O)n(-c2ccccc2)n1C,,inactive: 0.236%
O=C(NCc1ccc(Cl)cc1)C1CCN(S(=O)(=O)c2cc([N+](=O)[O-])ccc2Cl)CC1,active: 44.7 µM,
CCOC(=O)c1c(C)[nH]c(C)c1S(=O)(=O)N1CCOCC1,"inconclusive: 89.1 µM [inhibitor, single point]",
Cc1ccc(/C=C/C(=O)OCC(=O)Nc2cccc(S(=O)(=O)N(C)C)c2)o1,"inconclusive: 39.8 µM [inhibitor, single point]",
CCOc1ccccc1-c1cc(C(=O)N2CCOCC2)c2ccccc2n1,,inactive: 45.7% [at 102 µM]
COc1cc(NC(=O)c2ccc(-c3csc(C)n3)cc2)c(OC)cc1Cl,,inactive: -6.85% [at 102 µM]
CCOc1ccc(S(=O)(=O)N2CCN(C(=O)c3ccccc3Cc3ccccc3)CC2)cc1,"inconclusive: 44.7 µM [inhibitor, partial curve]",
CCCCSc1nc2sc3c(c2c(=O)n1-c1ccc(OC)cc1)CCN(C)C3,"inconclusive: 79.4 µM [inhibitor, single point]",
CCCCn1c(N)c(N(CCOC)C(=O)CN(C)S(=O)(=O)c2ccc(C)cc2)c(=O)[nH]c1=O,"inconclusive: 39.8 µM [inhibitor, partial curve, poor fit]",

SMILES,Potency,"activity, negative = inhibition"
O=CN1CCCN(C(=O)CC2C(=O)NCCN2Cc2cccc(Oc3ccccc3)c2)CC1 (stereo not drawn),active: 44.7 µM,
CC(=O)c1ccc(NS(=O)(=O)c2cccc(S(=O)(=O)c3ccc(Cl)cc3)c2)cc1,,inactive: -0.655%
Cc1ccsc1/C=N/n1c(-c2cccnc2)n[nH]c1=S,"inconclusive: 3.98 µM [inhibitor, partial curve, poor fit]",
CCOc1ccc(NC(=O)CSc2nc3ccccc3c(=O)n2CCCC(=O)N2CCCC2)cc1,"inconclusive: 89.1 µM [inhibitor, partial curve, poor fit]",
COc1cc(C(=S)N2CCOCC2)ccc1OS(=O)(=O)c1ccc(Cl)cc1,active: 35.5 µM,
Cc1cccc(-n2cc(-c3ccccc3)c3c(N4CCOCC4)ncnc32)c1,"inconclusive: 50.1 µM [inhibitor, partial curve]",
Cc1oc(-c2ccccc2F)nc1CS(=O)(=O)CC(=O)NCCN1CCCC1,"inconclusive: 89.1 µM [inhibitor, single point]",
Cc1ccc(C)c(CN2CCC(CNC(=O)Nc3ccc(Cl)cc3)CC2)c1,"inconclusive: 89.1 µM [inhibitor, partial curve, poor fit]",
O=C(Nc1ccc(OC(=O)c2ccco2)cc1)c1ccco1,"inconclusive: 39.8 µM [inhibitor, single point]",
COc1ccc(-c2c(C(=O)O)nc3ccccc3c2C(=O)O)cc1,,inconclusive: -112% [inhibitor]
CCNC(=S)Nc1cccc(F)c1C,"inconclusive: 39.8 µM [inhibitor, full curve, poor fit]",
Cc1ccc(C)c(N2CCN(c3ncnc4c3cnn4-c3ccccc3)CC2)c1,"inconclusive: 89.1 µM [inhibitor, single point]",
COc1nccnc1NS(=O)(=O)c1ccc(N/C=C2\CCCCC2=O)cc1,active: 50.1 µM,
CCCCn1c(SCC(=O)N2CCC(C(=O)OCC)CC2)nc2cc(S(N)(=O)=O)ccc21,"inconclusive: 39.8 µM [inhibitor, single point]",
CCOC(=O)c1c(NC(=O)C(C)Sc2nnc(C)c(=O)[nH]2)sc2c1CCCC2 (stereo not drawn),"inconclusive: 89.1 µM [inhibitor, single point]",
CCN(CC)S(=O)(=O)c1ccc(N2CCCC2)c(NC(=O)c2ccc(OC)cc2OC)c1,active: 28.2 µM,
COc1ccc(NC(=O)CCOc2ccccc2)c(OC)c1,,inactive: -2.36%
O=C1c2sc3nc4ccccc4n3c2C(=O)N1c1ccccc1Cl,active: 1.41 µM,
C=CCN1C(=O)C(O)(CC(=O)c2ccc(Cl)cc2)c2ccccc21 (stereo not drawn),active: 44.7 µM,
COc1ccc(O)c(/C=c2/sc3nc4cc(C)c(C)cc4n3c2=O)c1,active: 2.51 µM,
COc1ccc2sc(N(Cc3cccnc3)C(=O)c3ccc4c(c3)OCCO4)nc2c1,,inactive: -4.43%
